# Results from the supplement of paper PMC3334620.
# Over roughly 33,000 sequences, “E-score (-0.5 to 0.5)” has its median near -0.017; the highest 2% begin near 0.3. The list shows a part of the results.
# Target: T1, Sut1 (UniProt P53032)
# T1 sequence: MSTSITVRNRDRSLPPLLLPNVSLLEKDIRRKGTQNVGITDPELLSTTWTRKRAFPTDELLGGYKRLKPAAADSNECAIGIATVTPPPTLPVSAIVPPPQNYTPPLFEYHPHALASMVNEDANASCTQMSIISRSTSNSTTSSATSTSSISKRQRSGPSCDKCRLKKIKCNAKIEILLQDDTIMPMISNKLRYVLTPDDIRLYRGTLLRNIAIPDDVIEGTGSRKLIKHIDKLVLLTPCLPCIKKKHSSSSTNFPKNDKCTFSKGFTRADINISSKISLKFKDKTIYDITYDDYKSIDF
# Experiment: PBM E-score (8-mer binding enrichment) (E-score (-0.5 to 0.5)); higher = stronger / more preferred TF binding; most listed sequences are background and not binding sites
# Conditions: protein concentration: 200 nM; construct: GST-full length
# Description: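 Universal 'all 10-mer' protein binding microarrays (Agilent AMADID 015681) probed with GST-tagged S. cerevisiae TFs (full-length or DBD) made by in vitro transcription/translation (PURExpress), about 100-200 nM. Bound TF was detected with fluorescent anti-GST. Each ungapped 8-mer (which stands for itself and its reverse complement) is scored by the PBM enrichment score (E-score), a modified Wilcoxon-Mann-Whitney statistic from -0.5 to +0.5, computed with the Universal PBM Analysis Suite. Scale: above 0.35 generally sequence-specific binding.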
row,Sequence,PBM E-score
1,GGTTTTTA,0.12
2,AGTTGGGC,0.042
3,GACCGAAA,0.172
4,ACCGTAAG,0.113
5,CCGCGGGA,0.0493
6,ATGGGCTA,-0.0597
7,CCGGAGGA,0.259
8,ACTAACTA,0.172
9,CAAAAGTA,0.197
10,AAGTCTCG,-0.138
11,TCTTTTAA,0.205
12,CTCTCCAA,0.0481
13,CCGTTGAG,0.116
14,ATGGCACA,-0.0342
15,TCATGCCA,-0.0536
16,CTATGGCA,-0.254
17,AGGCGGTG,-0.292
18,CAGCCCTC,-0.298
19,CCTCTGCA,-0.0906
20,ACTAGCCG,-0.192
21,CCAACCAA,-0.152
22,ACACGGCC,-0.203
23,CCTACGAC,-0.124
24,CGCTGAGC,-0.198
25,TCGTAAAA,0.216

row,Sequence,PBM E-score
1,ATAATTTG,0.249
2,ACGCCACC,-0.251
3,CGATTATC,0.0561
4,AAACAACA,0.167
5,TCTGAAGA,-0.183
6,TCTCTGCA,-0.223
7,AAGTTGTA,0.0914
8,CGGGGATA,0.157
9,CCACATCG,-0.108
10,AAGGGTCG,0.0244
11,GGCTGTAA,-0.255
12,AGGCATTA,-0.116
13,CATCGACG,-0.192
14,CGCATCCA,-0.182
15,GTAGTGAC,0.14
16,GCTCGATA,-0.105
17,AGATCTCA,0.0178
18,CGGGGTCC,0.0747
19,GAGAACGA,0.0305
20,GCCGTTGA,0.0889
21,GGCCATGA,-0.0124
22,GTTGTACA,0.122
23,GCTTATGA,-0.0528
24,AGGTGTTA,-0.0885
25,ACTGTCAC,0.0213

row,Sequence,PBM E-score
1,CAGGGTTA,-0.283
2,AGACATCA,-0.176
3,CGACGTCC,-0.0918
4,ATAGCTAC,0.0547
5,ACGACGCT,-0.155
6,GCTCGAGA,-0.13
7,CCCGTTAA,-0.176
8,ACAATAAA,0.135
9,AACATTGG,-0.112
10,TCACTGAA,0.0412
11,AAAACTCG,0.199
12,CATCTCTC,-0.124
13,CACCTCGA,0.182
14,ACTCAAAA,0.0628
15,AGTCGTTC,-0.0566
16,AGATGGAT,-0.146
17,ATTAGAGG,-0.173
18,CCTGCGCC,-0.228
19,ATTCTTAC,0.245
20,CCCAGGTC,-0.312
21,ATATAGAC,0.19
22,CACCGTAA,0.0107
23,CCCCAGAC,-0.282
24,ACGCAACG,0.187
25,GGAAATAC,0.195

row,Sequence,PBM E-score
1,AGCGTTAC,-0.07
2,AGAACGGA,0.217
3,AGTCCGAC,0.477
4,ATGGAGAA,0.108
5,ATCCGTAG,-0.0423
6,TAAGATGA,0.00586
7,CTGCAATC,0.0569
8,GACAATAC,0.163
9,CTGTCAGA,-0.137
10,CCTCGACA,-0.288
11,CTACAGTA,-0.0655
12,CTCAGACC,-0.0343
13,AGTAATAT,0.312
14,CAGCCACC,-0.206
15,GTGAGGTA,-0.0275
16,CAGGGCTC,-0.171
17,CACAAAAG,-0.085
18,CTAATCGC,0.00398
19,CGAGAAAA,0.188
20,AAGAAGCA,0.0425
21,GCGCTACC,-0.213
22,TTATCAAA,0.256
23,AAGACGCT,-0.26
24,GCGAGGCA,-0.0631
25,TATGAACA,0.0917

row,Sequence,PBM E-score
1,AAATGGAA,-0.0215
2,ATTTAATA,0.265
3,CCGCAAGG,0.00491
4,ATTGCGGA,0.25
5,GAGTCCAC,-0.108
6,CTAACGCA,-0.0867
7,CGTAGCGA,0.0233
8,ACTCGAAT,0.0159
9,CAGCTTCA,-0.0395
10,TCAGCGAA,0.039
11,CACACGAG,-0.284
12,ATTTTGTA,0.318
13,AAACACGA,0.227
14,ATTCTCCG,0.409
15,AGATTATA,0.0862
16,CGCGACCA,-0.098
17,GGTGGGTA,-0.0653
18,ATCCTTCG,0.0447
19,CACGATTA,0.0689
20,AAAACTGA,0.12
21,AGTCTGAC,-0.143
22,GATGGCAC,-0.208
23,CTTGAAGC,-0.0614
24,GAACTCAC,-0.0282
25,ATAGGCGC,-0.101

row,Sequence,PBM E-score
1,AGGAAAGC,-0.00919
2,ACTAAAGT,0.0611
3,CGACAATC,0.0754
4,ATTCCAGC,-0.0722
5,ACCCCTAG,-0.248
6,ACGTATAA,0.209
7,CCCCGTCA,-0.197
8,GAATTTGC,0.173
9,GGTGAGAC,-0.123
10,CGGATGCA,-0.0215
11,AGTCTTCC,-0.0553
12,AACTGCAA,-0.0121
13,ATGTTCCC,-0.213
14,AGCACCAC,-0.312
15,CATAAAGA,0.209
16,CTACGAAA,-0.116
17,AATACCGT,0.0591
18,CTCTGACA,-0.112
19,TCAGTACA,0.033
20,GCCGTGCC,-0.175
21,CCCGGACC,0.339
22,CCGCGGAA,0.253
23,CACCGTGC,-0.263
24,GAATCGGA,0.376
25,CTAGTCCA,-0.129

row,Sequence,PBM E-score
1,CCCGACCG,-0.177
2,CGAAGGGA,-0.13
3,CGGTCTCC,0.0266
4,ACGATACG,-0.0892
5,GGCAACGA,0.0792
6,CAAAGTGA,0.0886
7,CAACCCCA,-0.156
8,CAGACACC,-0.104
9,AGTTTGAT,0.218
10,ATGTCAAA,0.126
11,AAACACTT,0.00605
12,GACACTTA,-0.13
13,GCTGCAGA,-0.0669
14,AACGCGAG,0.0583
15,TAGGATCA,-0.108
16,ACACGCAA,-0.0558
17,GCAACCCA,-0.123
18,GCCCCGGA,0.29
19,AGTGATCA,-0.0769
20,AGACGTAT,0.0319
21,GGCGCACC,-0.271
22,CCAAACCA,0.0126
23,AACTGCAG,-0.0165
24,GTTATTAA,0.295
25,ACCCGTAC,-0.0439

row,Sequence,PBM E-score
1,ATAAAGGC,0.0697
2,AGAACTCA,0.0672
3,ACTGACCC,-0.139
4,CGGGTCTA,-0.0694
5,AGTAGTGG,0.039
6,AATTAGAA,0.219
7,ACATGTCA,-0.0445
8,AGGCGGGC,-0.246
9,ATAAGGGA,0.0236
10,ATCGGAGC,0.358
11,AGGCTCGC,-0.288
12,AACGTAAT,0.177
13,CGAAGGAA,0.0839
14,CCATTGAC,-0.1
15,AGATTAAA,0.324
16,CCAGCCGC,-0.051
17,ATTCTAAA,0.158
18,AGAGTACG,-0.00068
19,TCCGTTCA,0.241
20,GAGGGACA,-0.242
21,ATGTTAAT,0.164
22,CATGCTCG,-0.103
23,ATGGGACG,-0.262
24,CAAAGGGC,-0.136
25,GTAGTATA,0.163

row,Sequence,PBM E-score
1,AAATGGCA,0.069
2,AAGGCTTA,-0.0684
3,ACCGCATG,-0.189
4,AGGCGCCG,-0.128
5,AGTGTTAC,0.15
6,ACGCTTGA,-0.0408
7,CTTTTAAA,0.0908
8,CCGCAGCA,0.0571
9,ATTACCTG,0.14
10,AAGGCCGT,-0.0495
11,CCACGTTA,0.0293
12,ATAGGACA,-0.121
13,AAATGGGG,-0.226
14,ACTATCCA,-0.00215
15,CTAGAGTA,0.114
16,AATTCGTC,0.147
17,CTCCCTCA,-0.276
18,AACCCTTC,0.113
19,ATCAATAG,0.115
